Results reported in article PMC12136788.
This is one part of the list.

B1: 166765582_166766801_2334_CDS_ENSMUSG00000002718_ENSMUST00000002790|mouse|control|control (ssRNA)
RNA: GGGAGUUCUACAGUCCGACGAUCGAUUAUACUGUUGAGAAGAUAGAAACCUUGGUGAUCGUUUGCCUUGGAUGCAAUCAGCUUCUGGAAGACACCCAGUAAUCCAGGAAUUUUGUCAGCUGCAGCAGUUGCUAUUGUACUUGACAACAGAGGAUUGAGCAUCA
B2: chr1:225611761:225611762:-_ENSG00000143815_ENST00000272163|hu_mus|hu_hu_hu_mus_True|28_58 (ssRNA)
RNA: GGGAGUUCUACAGUCCGACGAUCCCAGGCCAUCGGCCUCUGACCACUUCACCCUCAACAAACUUCCUACUUGGCAUUUUCUAUAAUUAGUCUGGCCGCGCUCCGGCCGGUGACACGGCCACUCCAGGACAGUCACCAGCAGCCCAACAGAGGAUUGAGCAUCA
B3: 93056736_93062024_1308_3pUTR_ENSMUSG00000020964_ENSMUST00000021347|mouse|control|control (ssRNA)
RNA: GGGAGUUCUACAGUCCGACGAUCCUUUCCCAGGAAGGCCAUAGCAUGUGAAUUGCCAGCAUUUGCUGCUAAGUUGAAGUAGUCAAACGCUCUCUGGUGAUUCUGUUCUACUCCACGCCCUCCAUGCAGAUGCAGCUGUCCCAGCAACAGAGGAUUGAGCAUCA
B4: chr11:46405157:46405158:+_ENSG00000110492_ENST00000395566|hu_hu|hu_hu_hu_mus_False|88_88 (ssRNA)
RNA: GGGAGUUCUACAGUCCGACGAUCCCCUCCCCACUUUGGGCACUUGGUGAGAGGGACAGAGGACAGGCGUGAUUGACAGAGCUGACAGGAAGACAAAAGGCACUGGUGGGUUAUAUCUUGGGCCUGUGGGAGAGGAGGGCUCCGCAACAGAGGAUUGAGCAUCA
B5: chr7:141438946:141438947:+_ENSG00000106028_ENST00000265304|hu_mus|motif|central (ssRNA)
RNA: GGGAGUUCUACAGUCCGACGAUCGACGAAAUACCUGUAACACAGGUCUUCGAAACAUGGCUUCUGUUUUUCUUACAACCGGAUCUUUAGGCUUUUCCUAAAGGAAAGAAAGAAAAGAGAAAAAUGAUAAAUCAAGAAACUACACAACAGAGGAUUGAGCAUCA
B6: chr5:4806066:4806067:-_ENSMUSG00000028926_ENSMUST00000030763|mus_hu|FALSE|FALSE (ssRNA)
RNA: GGGAGUUCUACAGUCCGACGAUCGUUUGAUAAUUGUUUUUUCAAUUCCAACCUAUUCAAAAAACAGUCAUGCUAUGUGGCUUGAAAAUGCUAAGCAGAGUCCAAUAUCCUAUAUAUAAAUGUGCAGUUAUUUCCAAGUAAAAACAACAGAGGAUUGAGCAUCA
B7: 32197834_32217671_124_5pUTR_ENSG00000165322_ENST00000344936|human|control|control (ssRNA)
RNA: GGGAGUUCUACAGUCCGACGAUCGGCUUGUUGGAUGAAUAUAGCUUAGAACAAGGAGAUCUACACCAGUAUCACAUUUAAACCGGGAGCCCGGCGGCCUCGCAGCAGGCGGCUCCCUUCUUAGUCCGCCCCGCGGCUGCGGGUCAACAGAGGAUUGAGCAUCA
B8: chr11:87793471:87793472:-_ENSMUSG00000020483_ENSMUST00000020775|mus_mus|mus_mus_mus_hu_False|1_88 (ssRNA)
RNA: GGGAGUUCUACAGUCCGACGAUCUGGACUUGAAAAUAAAAGAAUAAGCUAGAUUUCCCACCCCCCCACAUUGUCAACCCUACACGAGAGUUUUGAAGGCGACUCAUGAAAAUCAGCAGCUCAAACGGCAAUGACCACCCACCCCAACAGAGGAUUGAGCAUCA
B9: chr4:25749455:25749456:-_ENSG00000091490_ENST00000264868|hu_hu|hu_hu_hu_mus_False|48_98 (ssRNA)
RNA: GGGAGUUCUACAGUCCGACGAUCGCACUAUGACCUCCCCUAGAAAACACAGGGGGAAAAAAUGUAAACCAAUGUACAAUGUUAUCGCCCUCCCUGCGUGUGGAGUGUUUGUCUCAAGGCUCCUUCUAGCUGCUGGAUUUGGGACAACAGAGGAUUGAGCAUCA
B10: chr8:131229317:131229318:+_ENSMUSG00000025809_ENSMUST00000090006|mus_mus|FALSE|FALSE (ssRNA)
RNA: GGGAGUUCUACAGUCCGACGAUCUGGCCAAAUACAGAACAAAUCAAACUGAUCAAUCCAAUCCAGGAAACCAGUUGCAAAUUCAUCUUUUCGCAGCGUCCGCCCGACACGCGGGCGGCCCGGGCUCCGCCGCGUUCCGCCUCUCAACAGAGGAUUGAGCAUCA
B11: chr17:53623224:53623225:+_ENSMUSG00000017831_ENSMUST00000017975|perfect_dup|motif|central (ssRNA)
RNA: GGGAGUUCUACAGUCCGACGAUCGGCCCGUUGGGUCUUGUUGCUCCUCGAUUAGCCAUGUCCAAAUUUUAAAGAAGUCCCGGAUUUCAGAUUCCUAAAUGAACUUCCAGGAUGCAAGGCAUUAAUUUUGUUUUCUUUCUGGAGCAACAGAGGAUUGAGCAUCA
B12: chr2:71272186:71272187:+_ENSMUSG00000027018_ENSMUST00000028408|mus_hu|FALSE|FALSE (ssRNA)
RNA: GGGAGUUCUACAGUCCGACGAUCUUGUGCCUCUAUCGCCAUAUCUUCAUUGAAUCCUUGCAUUAAUUUUUCCCGGGAAAAACAGGGCAAAUCUUGACAAAGCUUCACAAGCACAAAGUCUCGUAAUUUCACAUAGCUUUUGGACAACAGAGGAUUGAGCAUCA
B13: 47103711_47103831_6217_CDS_ENSG00000181555_ENST00000409792|human|control|control (ssRNA)
RNA: GGGAGUUCUACAGUCCGACGAUCUCUUCGUUUCCUUUUCUCUUUAUUUUGAGUUUGCUUGUCUGGGUCUCUCUCUCUUGACCUAUUAGGAGUCUUCGGGGCAGGUGUUUGAUCUCUGAAGCCAACAGCAUCCCUUCCUCGUUCCAACAGAGGAUUGAGCAUCA
B14: chr3:71021771:71021772:-_ENSG00000114861_ENST00000475937|hu_mus|motif|central (ssRNA)
RNA: GGGAGUUCUACAGUCCGACGAUCCACUGUCCAUACUGCCCCUUUAACGUUCUCUACUCGCACAAAACACUUGUGGAGACGGAGAUUAUGACGCACUGCAUUCUUCCACGUGGCUGCAUUGCGUCGGAAGUAAGCAAACAUUCGCAACAGAGGAUUGAGCAUCA
B15: chr8:74858975:74858976:-_ENSG00000154582_ENST00000284811|hu_mus|hu_hu_hu_mus_True|8_68 (ssRNA)
RNA: GGGAGUUCUACAGUCCGACGAUCGACCUUGUAGGUAAAAUACAUGCACACUUUUGAUAGCACAUGUGAAGGUAUCUCUCUAAAAUUGACCUCGUUGGUUUCAUUCUCAGCAAACUGACCUGGACCACUCAACAUGGCCUUUAUCAACAGAGGAUUGAGCAUCA
B16: chr1:46159212:46159213:+_ENSG00000159596_ENST00000372025|hu_mus|hu_hu_hu_mus_True|8_88 (ssRNA)
RNA: GGGAGUUCUACAGUCCGACGAUCUCUGAUCCCUCCCAAGAAAGCUAGGAAACUGGCUCCAUAAGCCAUCUGAGUGAAAGCUAGGACGGGGAUAUAAGACUUUGUUAUUACCAUGAGAAGUGGGGGAGCAACGAAGGGGAUUAACAACAGAGGAUUGAGCAUCA
B17: chr16:37877144:37877145:+_ENSMUSG00000034158_ENSMUST00000078717|perfect_dup|motif|central (ssRNA)
RNA: GGGAGUUCUACAGUCCGACGAUCAUUUGCUAAUUCUGGUGGGAUUUCUUUAAUGAAGUUUCCUCCAAGGUAUAAACAUUCGGAACUCCGCAAGUUCUCGAUCUCGGCGGGGAUGCUCUGCAGCUGGUUGCCGCCCAGGCUGAGCAACAGAGGAUUGAGCAUCA
B18: 15276215_15276606_5794_CDS_ENSG00000074181_ENST00000263388|human|control|control (ssRNA)
RNA: GGGAGUUCUACAGUCCGACGAUCGAUGAGCUCUUCCACCAUGCCCUCUACUGCCAGGCGGGCCGCCAGGAUCAGUGCCGUUGAGCCAUCUGCCAUGCGGGCAUCCAAGUCUGUAGAGCGGUUUCGGAUGAGAAUCUGGAAGACCAACAGAGGAUUGAGCAUCA
B19: chr12:8945443:8945444:+_ENSMUSG00000020585_ENSMUST00000020909|mus_mus|FALSE|FALSE (ssRNA)
RNA: GGGAGUUCUACAGUCCGACGAUCUGGAAACGUACAAAUGAGAAGCAUGCAACCAUCAUCUUCCACAGUCAAGUCAAACUGCUAUUUCUCUCUCUCUCCUGUUUCAUAGAGCUGGAAACUGCAGGUGUUAUACCCAACCUAUUCCAACAGAGGAUUGAGCAUCA
B20: chr7:135124741:135124742:+_ENSMUSG00000030795_ENSMUST00000077609|mus_mus|FALSE|FALSE (ssRNA)
RNA: GGGAGUUCUACAGUCCGACGAUCAGAGCCUCCUGGUCCCCCUCCUGGGCCAUCUGGCUUAGGUGCCUUACACUGGUUGCAUUCAUUUCUCCAAGAGAAGUUCAUGUUCUCACAUGUAGGAUUAGGACACUUCCAGUCUCCAGCCAACAGAGGAUUGAGCAUCA
B21: chr1:220276048:220276049:+_ENSG00000067704_ENST00000302637|hu_hu|hu_hu_hu_mus_True|78_108 (ssRNA)
RNA: GGGAGUUCUACAGUCCGACGAUCGCAAACAGCUUCAUUGGCGGGAAUUGUCCAAGGUUGUGUGGUCCAAACUAAAACGCUAACAGGGGAUGAGGCAUCUGUAAGAGACUCCAACUUCGGAGGAGGUCUCAGGAGGGGGAAUCUCAACAGAGGAUUGAGCAUCA
B22: 57110128_57110248_3118_3pUTR_ENSMUSG00000025085_ENSMUST00000111529|mouse|control|control (ssRNA)
RNA: GGGAGUUCUACAGUCCGACGAUCGGCUGGGAAUCUGUUGCUCUGUGUUACUGCAGGUGUGGCAGACAGCUGGUCGCUUUAGUCCUUCAGAAGGAAUUUCUGCAUUUUGUGCUGAGUGGUCAUUGGGGGUGAAUCCAAGUGCUUCAACAGAGGAUUGAGCAUCA

The binders below were run against T1, UNK ZnF1-3 (human, UniProt Q9C0B0 31-174) (assay: nsRBNS (natural sequence RNA bind-n-seq); RBNS binding buffer (assumed for nsRBNS): 25 mM Tris pH 7.5, 150 mM KCl, 3 mM MgCl2, 0.01% Triton X-100, 500 ug/ml BSA, 20 U/ml SUPERase-In, 4 C; UNK is unkempt and MSI1 is Musashi-1; names of the RNAs are library labels; protein concentration not given here; high values mean tight binding).
T1 sequence: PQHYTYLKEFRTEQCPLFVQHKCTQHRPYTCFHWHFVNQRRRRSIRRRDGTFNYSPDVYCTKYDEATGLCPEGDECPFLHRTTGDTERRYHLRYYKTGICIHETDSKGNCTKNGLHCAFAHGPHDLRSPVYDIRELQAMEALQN

Binder | binding signal [enrichment R]
B1 | 0.887
B2 | 0.968
B3 | 0.849
B4 | 2.71
B5 | 0.726
B6 | 0.814
B7 | 0.663
B8 | 2.07
B9 | 1.08
B10 | 0.841
B11 | 0.858
B12 | 1.04
B13 | 0.363
B14 | 0.757
B15 | 0.578
B16 | 1.45
B17 | 0.89
B18 | 1.28
B19 | 1.1
B20 | 0.775
B21 | 1.64
B22 | 0.617
